# Source: the supplement of paper PMC4604168 (melanoma cell lines)
# Some of the results follow. Single values are uncertain, as repeats are few or missing.
# Test system: UACC257
# Assay: cell count relative to DMSO control; melanoma cells; higher = more viable cells
# Settings: library dose: standard library concentration; 72 h
# 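Also: cells treated in 1,536-well plates, then fixed and DAPI-stained, with nuclei counted from automated high-throughput microscope images.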
row,Structure (SMILES),cell count
1,"O=C(CCCCCCC(=O)Nc1ccccc1)NO [vorinostat] + O=S(=O)(c1ccccc1)N(CC(F)(F)F)c1ccc(C(O)(C(F)(F)F)C(F)(F)F)cc1 [T0901317] (first compound 0.4 µM, partner dose 7 µM)",69.7%
2,"Nc1cccc2c1CN(C1CCC(=O)NC1=O)C2=O (centres undefined) [lenalidomide] + Cn1cncc1[C@@](N)(c1ccc(Cl)cc1)c1ccc2c(c1)c(-c1cccc(Cl)c1)cc(=O)n2C [tipifarnib] (first compound 5 µM, partner dose 0.05 µM)",85.7%
3,"COCC[n+]1c2c(n(Cc3cnccn3)c1C)C(=O)c1ccccc1C2=O + Cn1cncc1[C@@](N)(c1ccc(Cl)cc1)c1ccc2c(c1)c(-c1cccc(Cl)c1)cc(=O)n2C [tipifarnib] (first compound 0.002 µM, partner dose 0.05 µM)",28.4%
4,"Cn1c(Nc2ccc(C(F)(F)F)cc2)nc2cc(Oc3ccnc(-c4ncc(C(F)(F)F)[nH]4)c3)ccc21 + Oc1nc(-c2ccc(C(F)(F)F)cc2)nc2c1CSCC2 [XAV939] (first compound 0.4 µM, partner dose 10 µM)",78.2%
5,"Clc1ccc(Nc2nnc(Cc3ccncc3)c3ccccc23)cc1 [vatalanib] + C=CCn1c(=O)c2cnc(Nc3ccc(N4CCN(C)CC4)cc3)nc2n1-c1cccc(C(C)(C)O)n1 [MK1775] (first compound 10 µM, partner dose 0.1 µM)",80.3%
6,"OCc1c[nH]c2ccccc12 [Indole-3-carbinol] + C[C@@H]1CCN(C(=O)CC#N)C[C@@H]1N(C)c1ncnc2[nH]ccc12 [CP690550] (first compound 4 µM, partner dose 5 µM)",107%
7,"Cn1c(Nc2ccc(C(F)(F)F)cc2)nc2cc(Oc3ccnc(-c4ncc(C(F)(F)F)[nH]4)c3)ccc21 + Nc1cccc2c1CN(C1CCC(=O)NC1=O)C2=O [lenalidomide] (first compound 0.4 µM, partner dose 5 µM)",85.4%
8,"COCC[n+]1c2c(n(Cc3cnccn3)c1C)C(=O)c1ccccc1C2=O + O=C(O)C(=O)Nc1sc2c(c1C(=O)O)CCNC2 [TCS401] (first compound 0.002 µM, partner dose 8.33333 µM)",27.1%
9,"C#Cc1cccc(Nc2ncnc3cc(OCCOC)c(OCCOC)cc23)c1 [erlotinib] + O=C(Nc1cccc(Cl)c1)Nc1ncc(CCNc2ncnc3ccsc23)s1 [SNS314] (first compound 4 µM, partner dose 0.004 µM)",57.2%
10,"Cn1c(Nc2ccc(C(F)(F)F)cc2)nc2cc(Oc3ccnc(-c4ncc(C(F)(F)F)[nH]4)c3)ccc21 + COc1ccc2c(c1)CCC1C2CCC2(C)C(NCCCCCCN3C(=O)C=CC3=O)CCC12 [U73122] (first compound 0.4 µM, partner dose 2 µM)",54.8%
11,"Nc1cccc2c1CN(C1CCC(=O)NC1=O)C2=O (centres undefined) [lenalidomide] + O=S(=O)(c1ccccc1)N(CC(F)(F)F)c1ccc(C(O)(C(F)(F)F)C(F)(F)F)cc1 [T0901317] (first compound 5 µM, partner dose 7 µM)",87.6%
12,"OCc1c[nH]c2ccccc12 [Indole-3-carbinol] + O=C(CCCCCCC(=O)Nc1ccccc1)NO [vorinostat] (first compound 4 µM, partner dose 0.4 µM)",76.4%
13,"Nc1cccc2c1CN(C1CCC(=O)NC1=O)C2=O (centres undefined) [lenalidomide] + COc1ccc(COc2ccc(Cc3cnc(N)nc3N)cc2OC)cc1 [GW2580] (first compound 5 µM, partner dose 5 µM)",79%
14,"C#Cc1cccc(Nc2ncnc3cc(OCCOC)c(OCCOC)cc23)c1 [erlotinib] + COc1cc2ncnc(Nc3ccc(Oc4ccccc4)cc3)c2cc1OC [SrcI1] (first compound 4 µM, partner dose 10 µM)",89.2%
15,"OCc1c[nH]c2ccccc12 [Indole-3-carbinol] + CC1(C)NC(=O)N(c2ccc([N+](=O)[O-])c(C(F)(F)F)c2)C1=O [nilutamide] (first compound 4 µM, partner dose 5 µM)",114%
16,"OCc1c[nH]c2ccccc12 [Indole-3-carbinol] + CN(NC(=O)CC(=O)NN(C)C(=S)c1ccccc1)C(=S)c1ccccc1 [STA4783] (first compound 4 µM, partner dose 0.03 µM)",96.6%
17,"Clc1ccc(Nc2nnc(Cc3ccncc3)c3ccccc23)cc1 [vatalanib] + Cc1cc(N2CCOCC2)cc2[nH]c(-c3c(NC[C@@H](O)c4cccc(Cl)c4)cc[nH]c3=O)nc12 [BMS536924] (first compound 10 µM, partner dose 1 µM)",75.9%

row,Structure (SMILES),cell count
1,"O=C(CCCCCCC(=O)Nc1ccccc1)NO [vorinostat] + O=C(O)C(=O)Nc1sc2c(c1C(=O)O)CCNC2 [TCS401] (first compound 0.4 µM, partner dose 8.33333 µM)",67.8%
2,"Nc1cccc2c1CN(C1CCC(=O)NC1=O)C2=O (centres undefined) [lenalidomide] + CN(C)S(=O)(=O)c1ccc2c(c1)/C(=C/c1cc3c([nH]1)CCCC3)C(=O)N2 [SU6656] (first compound 5 µM, partner dose 2 µM)",79.4%
3,"Nc1cccc2c1CN(C1CCC(=O)NC1=O)C2=O (centres undefined) [lenalidomide] + COC(=O)c1sccc1S(=O)(=O)Nc1ccc(Nc2ccccc2)cc1OC [GSK0660] (first compound 5 µM, partner dose 5 µM)",83.4%
4,"Nc1cccc2c1CN(C1CCC(=O)NC1=O)C2=O (centres undefined) [lenalidomide] + N#Cc1c(O)c2c(-c3ccc(-c4ccccc4O)cc3)csc2[nH]c1=O [A769662] (first compound 5 µM, partner dose 10 µM)",116%
5,"COCC[n+]1c2c(n(Cc3cnccn3)c1C)C(=O)c1ccccc1C2=O + COc1ccc(COc2ccc(Cc3cnc(N)nc3N)cc2OC)cc1 [GW2580] (first compound 0.002 µM, partner dose 5 µM)",55%
6,"Cn1c(Nc2ccc(C(F)(F)F)cc2)nc2cc(Oc3ccnc(-c4ncc(C(F)(F)F)[nH]4)c3)ccc21 + Cc1cc(N2CCOCC2)cc2[nH]c(-c3c(NC[C@@H](O)c4cccc(Cl)c4)cc[nH]c3=O)nc12 [BMS536924] (first compound 0.4 µM, partner dose 1 µM)",74.3%
7,"COCC[n+]1c2c(n(Cc3cnccn3)c1C)C(=O)c1ccccc1C2=O + Oc1cc(-c2nc(-c3ccccc3)[nH]c2-c2ccncc2)ccc1Cl [L779450] (first compound 0.002 µM, partner dose 1 µM)",25.4%
8,"C#Cc1cccc(Nc2ncnc3cc(OCCOC)c(OCCOC)cc23)c1 [erlotinib] + O=C1NC(=O)/C(=C/c2ccc(-c3ccc(F)cc3O)o2)S1 [AS252424] (first compound 4 µM, partner dose 5 µM)",89.5%
9,"Cn1c(Nc2ccc(C(F)(F)F)cc2)nc2cc(Oc3ccnc(-c4ncc(C(F)(F)F)[nH]4)c3)ccc21 + NCC(=O)Nc1ccc(-n2nc(C(F)(F)F)cc2-c2ccc3c(ccc4ccccc43)c2)cc1 [OSU03012] (first compound 0.4 µM, partner dose 5 µM)",79.2%
10,"C#Cc1cccc(Nc2ncnc3cc(OCCOC)c(OCCOC)cc23)c1 [erlotinib] + COc1ccc2c(c1)CCC1C2CCC2(C)C(NCCCCCCN3C(=O)C=CC3=O)CCC12 [U73122] (first compound 4 µM, partner dose 2 µM)",79.4%
11,"Clc1ccc(Nc2nnc(Cc3ccncc3)c3ccccc23)cc1 [vatalanib] + OCCn1cc(-c2cnc3nnn(Cc4ccc5ncccc5c4)c3n2)cn1 [PF04217903] (first compound 10 µM, partner dose 5 µM)",61%
12,"Nc1cccc2c1CN(C1CCC(=O)NC1=O)C2=O (centres undefined) [lenalidomide] + COc1ccc(-c2ccc3c(N4CCOCC4)nc(N4C[C@@H](C)O[C@@H](C)C4)nc3n2)cc1CO [KU0063794] (first compound 5 µM, partner dose 0.1 µM)",83.6%
13,"O=C(CCCCCCC(=O)Nc1ccccc1)NO [vorinostat] + C[C@@H]1CCN(C(=O)CC#N)C[C@@H]1N(C)c1ncnc2[nH]ccc12 [CP690550] (first compound 0.4 µM, partner dose 5 µM)",62.4%
14,"COCC[n+]1c2c(n(Cc3cnccn3)c1C)C(=O)c1ccccc1C2=O + N#Cc1c(O)c2c(-c3ccc(-c4ccccc4O)cc3)csc2[nH]c1=O [A769662] (first compound 0.002 µM, partner dose 10 µM)",25.7%
15,"Nc1cccc2c1CN(C1CCC(=O)NC1=O)C2=O (centres undefined) [lenalidomide] + O=C(Nc1ccccc1)c1cc([N+](=O)[O-])ccc1Cl [GW9662] (first compound 5 µM, partner dose 10 µM)",83.2%
16,"O=C(CCCCCCC(=O)Nc1ccccc1)NO [vorinostat] + CC(C)CCN1c2nc(Nc3cc(F)c(O)c(F)c3)ncc2N(C)C(=O)C1C [BID1870] (first compound 0.4 µM, partner dose 1 µM)",71.1%
17,"OCc1c[nH]c2ccccc12 [Indole-3-carbinol] + COCC[n+]1c2c(n(Cc3cnccn3)c1C)C(=O)c1ccccc1C2=O [YM155] (first compound 4 µM, partner dose 0.002 µM)",34.6%
